Laboratory results as given in the supplement of paper PMC4466236.
Whole data set: some 33,000 sequences, median “E-score (dimensionless, -0.5 to 0.5)” near -0.058, cut for the highest 2% near 0.35. This is one part of the list.

The sequences below were run on MvaT (assay: PBM 8-mer E-score (mean of HK and ME arrays) (E-score (dimensionless, -0.5 to 0.5)); higher = stronger relative binding preference; most listed sequences are background and not binding sites).
Summary of the method: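 Full-length P. aeruginosa MvaT carrying an N-terminal glutathione S-transferase tag was tested by protein binding microarray following a previously described protocol. Two universal double-stranded 60-mer arrays, ME and HK, were used, each with a constant 25-mer primer region and a variable 35-mer region covering all 8-mers. The rank-based E-score is the mean of the two arrays, parsed with a custom script. Its range runs from -0.5 to 0.5 for each 8-mer.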

Sequence	PBM 8-mer E-score
GTGCATGA	-0.0301
ACCATAGA	-0.0175
CTCATCGC	-0.123
CGTCGATC	-0.238
CTAACAAA	0.255
TACACACA	0.153
GCCGTCTA	-0.085
CATGTTGA	0.0607
GCATAGTA	0.14
AAGACGTG	-0.235
AGATTGAT	-0.0181
ATCCCTTA	-0.0281
TCTTCAAA	0.166
CCATGCTA	-0.155
ATCTGTCG	-0.0673
AGGCACGG	-0.223
CACACCTG	-0.143
ATAATGAG	0.313
GCCTACCA	-0.174
CTCAGTTC	-0.229
GCGACATA	-0.0623
AGGGTACC	-0.343
ATGATCGA	0.0867
ACGGATCC	-0.241
CAATGTGC	-0.0728

Sequence	PBM 8-mer E-score
GATATGCA	0.0935
AATTCACC	0.113
GATATCCC	-0.0645
AAGATGGC	-0.0248
GACGTTAC	0.0636
GTCTGGAA	-0.164
AAGGAGCG	-0.181
AGTAGAAA	0.0666
CGATGTTA	0.174
CCTGTGCG	-0.126
CAACTTAA	0.31
CGGGGAAA	0.104
TGCCATAA	0.0258
GAAGTAAC	0.178
CACTTACC	-0.106
GTGTGATA	0.0906
AGGTTTAT	0.142
TACCCTAA	0.0529
GTGCAACA	-0.096
CCGCAGAA	-0.0417
ATGACCCG	-0.0983
GCATACGA	0.0206
AAGCGTGC	-0.254
TCTTTGCA	0.0664
CATGTAGC	0.134

Sequence	PBM 8-mer E-score
CGTTTTCC	0.027
GCCACCAC	0.00975
CTCAACCC	-0.11
CACTTGCC	-0.194
CATGACCC	-0.0432
CTCAGGTC	-0.165
GGAACAGA	-0.0246
CTGCCTAA	-0.0257
ATTTATGG	0.204
ACTTGGCA	-0.0156
CGTAGCAG	-0.106
GGACTTCA	0.0589
ACTACAAG	0.116
ACTTCGCG	0.0619
CGACGCAC	-0.14
GATGGACC	-0.232
AGCCTATG	-0.0968
GTTCTCAA	0.0528
GACATGAA	0.166
CGCTTTCA	-0.1
CGCGCACG	-0.134
CTACAAGA	-0.09
CGTCTGTC	-0.0927
AATACTCG	0.125
AACTATAA	0.382

Sequence	PBM 8-mer E-score
TAAGCCTA	-0.0915
CTTCTAAC	0.0486
CAGCTCCG	-0.305
CTCTAACC	-0.139
AAGGTATA	0.152
ATCCGCGA	0.0327
CACCCACC	-0.151
CCCCAGAA	-0.23
TAAGCGCA	0.14
ACCAATGG	-0.0993
ACTTCCCT	-0.00654
CAGGCGTA	-0.114
TAAGTTGA	0.29
CCCAGAGC	-0.207
GGCATACA	0.0623
ACAGTCAC	-0.204
GGTTCACA	-0.00819
GAGTGCCC	-0.187
AGAGCTCT	-0.156
AGCCCGAG	-0.164
CGGCCAGC	-0.228
GGCGATGA	-0.16
ACCAGCAC	-0.0925
CCAAGCCG	-0.322
AATTGTCG	0.185

Sequence	PBM 8-mer E-score
CCTCGAAA	-0.0711
AAGGAGTA	-0.154
CGACGTGC	-0.214
ATCGTCTA	-0.0142
CGAACTTA	0.229
AGTCGACA	0.0665
CTTAACTC	0.0392
TATGGCCA	-0.0429
ACCATGCG	-0.128
GGGTCGCA	-0.14
ATCGCCAA	-0.0435
GCTCTTGA	-0.154
CGCCTATC	-0.126
CATTGGTA	-0.109
ATGTCCTC	-0.129
CTCACACC	-0.0325
AGTCATGG	-0.0721
ACTACCAG	-0.12
CGTGTGGC	-0.0386
TCTATCAA	0.0716
GCTATGCC	-0.26
CCCTGCTA	-0.287
AGAGAATG	-0.0193
AATAAAGT	0.372
ACTCCTCA	-0.205

Sequence	PBM 8-mer E-score
AGGTCGTA	-0.122
AGTACAGC	-0.0804
AAAACCGC	0.058
AGTGCAGA	0.0261
AACAAGTT	0.251
AAACTCCA	-0.011
ATACAATC	0.18
ACGGGGCG	-0.229
CATGGCGC	-0.263
CACGACGC	-0.183
CGCCCGCC	-0.17
ACGACTAG	-0.185
AACGCATG	-0.0851
ATACATCG	0.0832
AGATTTGC	-0.0458
ATCCATTA	0.233
CGCATCCG	-0.222
GTGCGTTA	0.133
TGATACAA	0.145
GATGGCCA	-0.128
ACTCCCAC	-0.103
CACCCTGA	-0.109
GACAGGAA	-0.051
ACCATTCT	0.00713
CTGTATGA	-0.0996

Sequence	PBM 8-mer E-score
ACGTAGAG	-0.167
TAACTACA	0.249
CAAAACAC	0.0954
CACCCTCC	-0.163
CGATCCGA	-0.123
CTGCGCAA	-0.0818
AGTGGAAG	0.0157
ATGAACTG	0.013
CCCGACTC	-0.0416
GATTGTTA	0.204
CCAGTAGC	-0.0641
CCTCAGCG	-0.282
AACGAGCT	-0.173
AAACCTTC	-0.076
TAACGCCA	-0.0994
TGATTACA	0.175
AGCTACTG	-0.0992
CAACCTCC	-0.237
ATGCCTAG	-0.0922
AAGATGAA	0.0102
ACCCCTAT	0.0101
AGTATCCA	0.00667
ATCAAGAA	0.117
CAGTGTGA	0.0669
CGATGTGC	-0.0977

Sequence	PBM 8-mer E-score
GTCAACGA	-0.153
CGACCTGC	-0.202
AGCTGTCC	-0.182
TACGAAAA	0.228
ACTAAAAC	0.289
CCCCGACC	-0.336
CGGCAACA	-0.0512
AATAATGC	0.384
CGTCACCA	-0.18
AAACCTGC	-0.0401
TACGCCTA	-0.261
AGAGTTTG	0.178
GGGTGTCA	-0.0502
TAGAGCGA	-0.181
CGGATCTA	-0.228
CTCTTACA	0.0256
CGGAGCAA	-0.137
ACACGCCA	-0.165
ACTCCCGC	-0.2
ATGTAAAC	0.123
GCCCGCAA	-0.0618
AAAGGACT	0.00635
GTTCGCCA	-0.143
GAATAGGA	-0.0282
ATCATCAT	0.0279

Sequence	PBM 8-mer E-score
ACAGATAT	0.167
AAACTAAG	0.304
ACGTTTCG	-0.178
CATCAAAA	0.0407
ATGCACCC	-0.0724
AGCCCACA	-0.0622
ACATGGAC	-0.0248
GGGGTATA	-0.000143
CGGCATTC	-0.142
GGACAAAA	0.124
CACTCGAC	-0.125
CTGGGAAG	-0.116
AAAGGGCC	-0.251
CTGAGAAC	-0.0775
TCATTTCA	0.0512
CAAATGTC	0.00575
ATTGGCGC	-0.0226
CCAGGGCC	-0.325
GGAATGGA	-0.112
AGACCGAG	-0.182
GCGAATAA	0.291
AAGTCCAG	-0.0458
AAAAAGAG	0.0446
CGGGACGA	-0.147
ACTTAAGC	0.116

Sequence	PBM 8-mer E-score
AATTCTAC	0.188
ACGATAAG	0.0654
ACGGGCTA	0.0215
GCTTGCAA	-0.094
TAATCTCA	0.212
ACATGGCG	-0.0804
ATAGGTAG	0.0553
AAGTTAAA	0.411
CCGCGACG	-0.107
CTTCTGAA	0.0127
CCCGAAAA	-0.061
AGTGTGCC	-0.124
CGGGGGTA	-0.267
CATGTACC	0.169
GCCTGCCA	-0.193
AATGCTGT	0.153
AGGCTAAT	0.0247
CACGCTTA	-0.0488
CATAAGAC	0.088
ATGGGTAG	-0.0164
TGACCGAA	-0.12
ACTGTAAA	0.266
AAACCAAA	0.254
GCAGCACA	-0.163
GGCAGTAA	0.156

Sequence	PBM 8-mer E-score
GCCGACAC	-0.139
GAGGATTA	-0.0188
GAACTTGC	0.23
CTTCGATA	0.0794
ACCCGGAG	-0.231
CGTGGGGC	-0.227
AAGCTAAT	0.0881
AGTTATCG	0.116
CTGTGTAC	0.0205
ACCAACAT	0.237
GCCGCCTA	-0.281
CCGTACTC	-0.184
GGTCACCA	-0.23
CTATCGAG	-0.0888
CAGATCCA	-0.0509
CAGGTGAA	0.0422
CCAGCGAA	-0.048
CCAAAACC	-0.0346
ACTGTCTG	-0.0221
AAATAGTA	0.288
GTCAACAA	0.0471
AGCCAGCC	-0.299
CCCCTCCC	-0.431
ATGGCCCA	0.00636
TAAAAGTA	0.262

Sequence	PBM 8-mer E-score
AATCAAGA	0.0771
ATAGGACG	0.0145
AGCCACCT	-0.136
GGCTACCA	-0.214
ATGATTAG	0.157
TGATAAAA	0.258
GATTTCAA	0.0191
GGTTCTGA	-0.112
GCATGCGA	-0.143
GCCGTGAC	-0.222
CGTTACGA	-0.0963
CGTCGCAG	-0.0746
AGCCCAAC	-0.251
AGTCATCA	-0.0305
ATCGACTC	-0.064
CAATGATG	0.113
CCCGGTGA	-0.208
GGATGGTA	0.0459
GGACATTA	0.103
ACGTAACC	-0.0939
CATCTTGA	-0.092
ACTGACCG	-0.1
AACGCATT	0.127
ATCTTGAG	0.11
CAGGGCGA	-0.194

Sequence	PBM 8-mer E-score
GGGACGAA	-0.231
GGAGATAC	-0.133
CGTGACAA	-0.0139
CTTCCCGA	-0.073
CGAATACG	0.105
CAACCTCG	-0.176
CGGCATCC	-0.205
AAGCAGGT	0.0586
ACCGGAGC	-0.275
CTTCCCTC	-0.21
ACCTCCCT	-0.442
ACGCCACA	-0.0172
CTGTAAAC	0.0598
TAGAGGGA	-0.155
CGTATACC	-0.0453
CCAATCTA	0.147
AATCCCGC	-0.0144
AGTAAGTC	0.0956
TACCAACA	0.0228
TCTGTGCA	-0.0618
TGGAGAAA	-0.0322
GCCTGACA	-0.188
CTATCTAC	0.0623
AACATTTG	0.103
CTAGCTTC	-0.25

Sequence	PBM 8-mer E-score
ACATCTCT	0.0261
AGTCGTCA	-0.101
GGCAAAAA	0.0151
AAAACGCG	0.148
GGAGGGTA	-0.136
CCCTACAA	-0.153
TGGCCAAA	-0.19
ACCACCTC	-0.1
GATCGTAC	-0.0743
AAGGTCCG	-0.195
CAGTTTCC	-0.0848
GATTCGCC	-0.089
CGCCAGTA	-0.0222
GCATGTCA	0.0367
CCCTCCGG	-0.369
GGCCGAAC	-0.196
CGTCGAAA	0.147
GCTTCAAC	-0.0192
GAGGTGAA	-0.212
